Where “and” joins values, the source holds several entries; their conditions need not be identical. Identical values can stand only once. The campaign covered roughly 16,000 compounds. About 40 (0.2%) were called active. Inconclusive results (about 1%) are left out. The call rests on the fitted dose curve; in most records, active means well fitted activation curve with a large enough effect; inconclusive means small, poorly fitted or top-dose-only effect, or another doubt; inactive means no such curve, though single readings can be large or run the other way. This is one part of the list.
On the % scale 0 is the no-effect control and ±100 the full control effect.

The test addresses Rap guanine nucleotide exchange factor 4 (Homo sapiens) (UniProt Q8WZA2). Description: Validation qHTS for agonist of cAMP-regulated guanine nucleotide exchange factor 4 (EPAC2).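 Further: exchange makes BODIPY-GDP fluorescence drop when released from Rap1B; series mostly up to about 150 µM.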 As to conditions: EPAC2 Rap1B BODIPY-GDP exchange, fluorescence; activation: hits give high values. An outline of the steps: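 Fluorescent exchange assay: 100 nM EPAC2 with 250 nM RAP1B-BODIPY-GDP and 50 uM GDP; compound added, 5 min at room temperature, then read (ex 480/em 540 nm) every 5 min for 30 min. Normalized to 6.5 mM cAMP agonist control.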
Chain of UniProt Q8WZA2 (Q8WZA2 whole entry, looked up): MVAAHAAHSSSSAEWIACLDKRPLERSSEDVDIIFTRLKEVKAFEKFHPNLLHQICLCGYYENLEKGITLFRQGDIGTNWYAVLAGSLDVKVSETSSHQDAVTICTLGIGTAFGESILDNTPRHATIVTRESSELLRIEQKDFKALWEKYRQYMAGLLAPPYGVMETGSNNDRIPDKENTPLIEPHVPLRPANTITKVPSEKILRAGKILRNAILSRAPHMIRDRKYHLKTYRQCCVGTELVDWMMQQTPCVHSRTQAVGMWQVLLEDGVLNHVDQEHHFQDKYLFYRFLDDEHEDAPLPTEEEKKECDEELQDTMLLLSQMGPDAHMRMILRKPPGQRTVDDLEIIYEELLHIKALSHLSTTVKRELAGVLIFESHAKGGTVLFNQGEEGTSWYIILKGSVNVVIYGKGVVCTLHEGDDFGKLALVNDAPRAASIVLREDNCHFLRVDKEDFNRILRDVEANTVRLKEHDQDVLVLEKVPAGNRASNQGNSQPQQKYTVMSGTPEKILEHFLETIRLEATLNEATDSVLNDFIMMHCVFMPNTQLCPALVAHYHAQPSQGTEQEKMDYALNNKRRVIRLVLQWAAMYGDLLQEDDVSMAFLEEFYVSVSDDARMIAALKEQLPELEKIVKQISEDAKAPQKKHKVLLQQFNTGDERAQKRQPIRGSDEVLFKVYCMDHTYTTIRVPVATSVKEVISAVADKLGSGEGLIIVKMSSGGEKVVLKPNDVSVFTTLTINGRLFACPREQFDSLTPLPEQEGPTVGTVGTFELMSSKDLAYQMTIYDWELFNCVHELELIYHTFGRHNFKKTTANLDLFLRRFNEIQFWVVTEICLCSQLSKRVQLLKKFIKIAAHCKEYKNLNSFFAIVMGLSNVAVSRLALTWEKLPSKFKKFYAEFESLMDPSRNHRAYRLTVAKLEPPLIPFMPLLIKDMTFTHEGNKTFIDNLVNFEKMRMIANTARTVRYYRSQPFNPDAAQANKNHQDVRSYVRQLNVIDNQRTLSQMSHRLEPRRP
(Quantitative high-throughput screening tests each substance at several concentrations.)
Take `NCCC(=O)N[C@@H](Cc1cnc[nH]1)C(=O)O`: the activation is inactive: -5.04%.
To `NC(=O)c1cccnc1` belongs inactive: -9.28%; to `CO/N=C(\C(=O)N[C@@H]1C(=O)N2C(C(=O)O)=C(COC(C)=O)CS[C@H]12)c1csc(N)n1` (stereo in doubt), inactive: 7.59%; to `Cc1cnc(CNc2cc(-c3cccc(NS(C)(=O)=O)c3)ncn2)cn1`, inactive: -1.69%.
With `Cc1cccc(CNc2ncnc3ccc(-c4ccccc4CN(C)C)cc23)c1` the figure was inactive: -16%.
With `COc1cc(-c2cc(C)c3cccc(OC)c3n2)cc2c1OCCN(C(=O)CC1NC(=O)c3ccccc31)C2` (centres undefined) the figure was inactive: -8.91%; with `COc1ccc(-c2nc3cnc(OC)nc3n(CCc3ccccc3)c2=O)cc1`, inactive: -7.57%.
`Nc1nccs1`: the activation is inactive: -18.7%.
To `CC(C)NC(=O)N1CC[C@@]2(CCCN(C(=O)c3ccncc3)C2)C1` belongs inactive: -11.5%; to `COc1ccc(Cl)cc1N1C(=O)[C@@H]2C[C@H]1CN2Cc1nc2ccccc2nc1C`, inactive: -24.6%; to `Cn1c(=O)c2c(ncn2CC(O)CO)n(C)c1=O` (centres undefined), inactive: 4.72% and inactive: 4.29%.
With `CCNc1ncc2nc(-c3cc(F)cc(F)c3)c(=O)n(CCOC)c2n1` the figure was inactive: -13.8%.
With `CC(CCC(=O)O)C1CCC2C3C(O)C[C@@H]4CC(O)CC[C@@]4(C)C3CC[C@@]12C` (some centres undefined) the figure was inactive: -11.9% and inactive: 4.12%.
On to `COc1ccc(C(=O)N2CCC3(CC2)CCN(c2cccc(-c4ccccc4)c2)CC3)cc1`, for which the activation was inactive: 0.0215%.
For `C=CCCCCCCCCC(=O)OC`, the activation was inactive: -2.17%.
With `COc1ccc(-c2nc3cnc(N4CCNCC4)nc3n(C3CC3)c2=O)cc1` the figure was inactive: -0.379%.
To `CC(C)=CCCC1(C)C=Cc2c(c(C)cc3c2[nH]c2ccccc23)O1` (centres undefined) belongs inactive: 24.9%; to `CCCCCC1CCNCC1`, inactive: -15.7%.
To `COCCn1c(=O)c(-c2ccc(F)cc2)nc2cnc(OCc3ccccc3)nc21` belongs inactive: -23%; to `COc1ccccc1-c1cncnc1Nc1ccccc1`, inactive: -15.8%; to `COc1ccc2[nH]cc(CCNc3ccnc(-c4ccccc4Cl)n3)c2c1`, inactive: -5.37%.
Regarding `COc1cccc(Cn2c(=O)c(C)nc3cnc(N4CCNCC4)nc32)c1`, the activation was inactive: 4.92%.
As to `COC(=O)C(O)C1C(C)(C)C(OC(C)=O)C2CC3=C4CC(=O)OC(c5ccoc5)[C@]4(C)CCC3[C@@]1(C)C2=O` (some centres undefined), the activation was inactive: -10.7%.
To `C=C1CCC2[C@](C)(CO)[C@H](O)CC[C@@]2(C)[C@@H]1C/C=C1/C(=O)OC[C@H]1O` (some centres undefined) belongs inactive: -4.87%.
